Measurements as given in PubChem BioAssay AID488969 (Vanderbilt High Throughput Screening Facility, 2010).
Whole data set: some 110,000 compounds, median “z-score” near -0.1, cut for the highest 2% near 2. The list shows a part of the results. The source made the active and inactive calls.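 The calls were made as follows: active = z-score in the third read window above 3 or below -3; inactive = the rest.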

Molecular target: Metabotropic glutamate receptor 8 (Rattus norvegicus) (UniProt P70579)
Experiment: mGluR8 Gi/Go-coupled signaling modulation – cell-based, rat, thallium flux, HTS, primary screen (AID 488969)
Settings: HEK293 rat mGluR8, GIRK (G protein-gated inwardly rectifying potassium channel) thallium flux, FluoZin2; at 10 µM; stronger effect = higher value; submaximal glutamate (EC20) added with thallium

UniProt P70579, sequence (P70579 whole entry, looked up): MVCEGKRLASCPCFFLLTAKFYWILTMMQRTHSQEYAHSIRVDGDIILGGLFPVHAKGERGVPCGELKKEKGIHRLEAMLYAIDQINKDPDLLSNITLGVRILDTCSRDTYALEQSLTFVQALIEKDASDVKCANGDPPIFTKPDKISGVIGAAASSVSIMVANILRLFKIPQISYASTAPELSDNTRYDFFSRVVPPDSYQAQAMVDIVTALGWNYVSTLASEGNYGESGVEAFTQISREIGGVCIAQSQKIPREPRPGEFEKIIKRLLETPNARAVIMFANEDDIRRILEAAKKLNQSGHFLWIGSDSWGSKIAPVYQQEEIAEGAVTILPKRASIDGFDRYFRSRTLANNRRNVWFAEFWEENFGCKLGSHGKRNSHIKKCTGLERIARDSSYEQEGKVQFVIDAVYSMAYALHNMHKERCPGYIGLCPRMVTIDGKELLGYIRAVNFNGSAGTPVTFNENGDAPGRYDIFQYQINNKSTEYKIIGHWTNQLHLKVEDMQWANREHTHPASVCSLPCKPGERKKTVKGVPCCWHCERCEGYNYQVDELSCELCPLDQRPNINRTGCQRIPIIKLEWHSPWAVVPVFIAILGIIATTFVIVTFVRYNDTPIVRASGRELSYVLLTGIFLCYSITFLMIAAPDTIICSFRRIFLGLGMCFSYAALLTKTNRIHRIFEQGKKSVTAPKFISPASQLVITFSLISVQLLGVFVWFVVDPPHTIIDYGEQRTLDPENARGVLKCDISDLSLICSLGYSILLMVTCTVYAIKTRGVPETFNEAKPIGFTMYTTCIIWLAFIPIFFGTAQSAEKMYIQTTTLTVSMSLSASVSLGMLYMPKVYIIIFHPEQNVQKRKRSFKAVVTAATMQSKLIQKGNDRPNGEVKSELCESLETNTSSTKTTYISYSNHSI

| SMILES | z-score |
| --- | --- |
| O=C(N/N=C/c1c(O)n(-c2ccccc2Cl)c(=O)c2ccccc12)C1COc2ccccc2O1 (centres undefined) | -0.893 |
| O=[N+]([O-])c1cccc(C(=Nc2ccc(Cl)cc2)NO)c1 | -0.259 |
| CCC(C)(C)n1nnnc1C(c1cc2cc(OC)ccc2[nH]c1=O)N1CCc2ccccc21 (centres undefined) | -0.479 |
| Cc1ccc(/C=N/NC(=O)CNC(=O)COc2ccccc2)o1 | 0.62 |
| COc1ccc(S(=O)(=O)Nc2ccc(N3CCOCC3)cc2)cc1Br | 0.132 |
| CCOC(=O)/C(C#N)=C\C=C1C=CN(C)C=C1 | -1.89 |
| CC(C)CNC(=O)CSc1nnc(-c2ccccn2)n1Cc1ccccc1 | -0.0283 |
| Cc1ccccc1C(=O)Nc1ccccc1C(=O)N/N=C\c1ccco1 | active: 5.6 |
| Cc1cccc(Nc2nnc(SCC3CCCCO3)s2)c1 (centres undefined) | 0.952 |
| COc1ccc(C(C)(C)C)cc1NC(=O)C1CC=CCC1C(=O)O (centres undefined) | -0.209 |
| O=C(Nc1cc(C(F)(F)F)ccc1N1CCOCC1)c1n[nH]c(=O)c2ccccc12 | -0.0828 |
| c1ccc(Cc2nnc3sc(-c4ccc5c(c4)OCCO5)nn23)cc1 | -1.22 |
| CC1CCCCC1NC(=O)CCn1c(=O)oc2ccccc21 (centres undefined) | 0.309 |
| CCn1c(SCC(=O)C(C)(C)C)nnc1-c1cccnc1 | -0.265 |
| CCc1cc2c(N[C@@H](C)C(=O)O)ncnc2s1 | 0.00833 |
| Cc1nc2ccc(S(=O)(=O)NCC(=O)NCc3ccc4c(c3)OCO4)cc2s1 | -0.345 |
| Cc1nc(-n2nnc3ccccc32)c2c3c(sc2n1)CCCC3 | -0.217 |
| CCC1c2ccc(C)n2CCN1C(=O)Nc1ccccc1C(=O)OC (centres undefined) | active: -3.2 |
| O=C(O)C1C2C=CC(C2)C1C(=O)OCC1CCCO1 (centres undefined) | 0.454 |
| C=CCSc1nc2sc(C)c(C)c2c(=O)n1CC=C | -0.28 |
| Cc1cc(Oc2ccccc2)nc(SCC(=O)Nc2ccc(Cl)cc2Cl)n1 | 0.542 |
| O=C(C1CCCN(CCCc2ccccc2)C1)N1CCCCCC1 (centres undefined) | 0.123 |
| CCOc1ccccc1N1C(=O)c2ccc(C(=O)Nc3cccnc3)cc2C1=O | 1.04 |

| SMILES | z-score |
| --- | --- |
| Cn1nnnc1SCC(=O)Nc1ccc(N2CCOCC2)cc1 | -0.367 |
| CCOCCn1c(SCc2c(F)cccc2Cl)nc2c1c(=O)[nH]c(=O)n2C | 0.197 |
| O=C(CCN1C(=O)c2ccccc2S1(=O)=O)N1CCN(c2ccccc2)CC1 | -0.363 |
| CCN(CC)S(=O)(=O)c1ccc(Cl)c(C(=O)Nc2ccc(Cl)cc2[N+](=O)[O-])c1 | -1.25 |
| O=C(NN1CCOCC1)c1cc(S(=O)(=O)Nc2cccc(C(F)(F)F)c2)ccc1Cl | -0.144 |
| COc1cccc(CNC(=O)CCCCCn2c(=S)[nH]c3ccc(N4CCOCC4)cc3c2=O)c1 | 0.141 |
| COc1cc(/C=N/NC(=O)C(=O)/C=C2\NC3(CCCC3)Cc3ccccc32)ccc1O | -1.03 |
| COc1ccc(/C=N/N(C(C)=O)c2nc(-c3ccc(C)cc3)cs2)cc1 | 0.128 |
| O=C(Cn1cnc2ccccc2c1=O)NCCC(=O)N1CCN(Cc2ccccc2)CC1 | 0.259 |
| CN1C(=O)/C(=C/c2ccc3c(c2)OCO3)N=C1c1ccccc1 | 0.393 |
| O=C(Nc1ccccn1)C12CC3CC(C1)CC(C(=O)Nc1ccccn1)(C3)C2 | 0.332 |
| O=C(N/N=C/c1ccccc1F)NC1CCCCC1 | -0.329 |
| CS(=O)(=O)N(CC(=O)N1CCN(C(c2ccccc2)c2ccccc2)CC1)C1CCCCC1 | -0.387 |
| O=C(Nc1ccc(N2CCCC2)cc1)C(Cl)c1ccccc1 (centres undefined) | 0.0467 |
| COc1cccc2c1OCC(C(=O)NCc1ccc(Cl)cc1Cl)=C2 | -0.437 |
| O=C(O)c1cccc(S(=O)(=O)NCC2CCCO2)c1 (centres undefined) | 0.0635 |
| CC1=CC(C)(C)N(C(=O)CSc2nnc(N)s2)c2ccccc21 | -0.424 |
| O=C(/C=C/c1ccc(Cl)cc1Cl)c1cccnc1 | 0.344 |
| CCOC(=O)C(NC(=O)c1ccccc1)(N1CCCC1=O)C(F)(F)F (centres undefined) | 0.0628 |
| O=C(c1cccc(C(F)(F)F)c1)N1CCC(O)(CS(=O)(=O)Cc2ccccc2Cl)CC1 | 0.185 |
| Cc1cccc(CSc2ccc(-c3ccco3)nn2)c1 | 0.846 |
| Cc1nnsc1NC(=O)OCC(C)C | -0.582 |
| C=C(C)C1CCC(C)=C1COC(=O)Nc1ccccc1 (centres undefined) | -0.437 |

| SMILES | z-score |
| --- | --- |
| Cc1ccc(N(CC(N)=O)C2SC(=O)N(Cc3ccccc3)C2=O)cc1 (centres undefined) | 0.0113 |
| CCCCNC(=O)/C(C#N)=C/c1ccc2c(c1)OCCO2 | 0.0207 |
| COc1ccccc1NC(=O)COc1ccccc1 | 0.137 |
| c1csc(-n2nc3ccccc3n2)c1 | 0.0592 |
| CCN1CCN(CC(=O)N/N=C/c2ccc(F)cc2F)CC1 | -0.212 |
| CCc1ccccc1N1CSC2=C(C#N)C(c3cc(OC)c(OC)cc3OC)CC(=O)N2C1 (centres undefined) | -0.506 |
| Cc1cc(SCC(=O)N/N=C/c2ccc(O)c(O)c2)c(C)cc1Br | -0.162 |
| CCOC(=O)N1CCC(NC(=O)CCS(=O)(=O)c2ccc3c(c2)CCN3C(C)=O)CC1 | 0.000338 |
| CC(=O)NC(c1cccc([N+](=O)[O-])c1)c1c(OC(C)=O)ccc2ccccc12 (centres undefined) | -0.117 |
| COc1ccc(/C=N/OCC(=O)N=Nc2c(O)[nH]c3ccc(Br)cc23)cc1OC | -0.183 |
| Cc1ccc(C(=O)Nc2ccc(Oc3ccc(C(=O)O)c(C(=O)O)c3)cc2)cc1C | 0.184 |
| COc1ccc(N=Cc2c(O)c3ccccc3oc2=O)cc1 | -0.209 |
| Cc1ccc2c(c1)[nH]c1c(=O)n(CCN3CCNCC3)cnc12 | 0.907 |
| O=C(COC(=O)c1cn(-c2ccccc2)nc1-c1ccc(F)cc1)Nc1ncc(Cl)cc1Cl | 0.0446 |
| COc1ccc(N(C(=O)C(C)C)S(=O)(=O)c2cccc3cccnc23)cc1 | -0.207 |
| COC(=O)c1c(-n2c(C)cc(C=O)c2C)sc2c1CCCC2 | -0.627 |
| C=CCN1C(=O)/C(=C/c2ccc(OC)cc2)S/C1=N/c1nccs1 | -0.219 |
| CCOC(=O)C1=C(CSc2nc(-c3ccccc3)ccc2C#N)OC(N)=C(C#N)C1c1ccccc1 (centres undefined) | 2.03 |
| CC(C)C(c1nnnn1C1CCCC1)N1CCCc2ccccc21 (centres undefined) | -0.471 |
| S=c1[nH]nc(-c2ccco2)n1C1CCCCC1 | -0.0951 |
| COc1cc2c(cc1OC)CN(CC(=O)Nc1ccc3c(c1)OCO3)CC2 | 0.142 |
| COc1ccc(C(=O)C(OC(=O)CNC(=O)c2ccco2)c2ccccc2)cc1 (centres undefined) | -0.387 |
| Cc1ccc(Cl)c(OC(=O)c2nn(C(C)C)c(=O)c3ccccc23)c1 | 0.19 |
